# Laboratory results reported in PubChem BioAssay AID652104 (National Center for Advancing Translational Sciences (NCATS), 2013).
# Screen size: about 410,000 compounds; about 7,200 (1.8%) were called active. Inconclusive means that the source gave no clear call. Such entries were picked first, then a sample of the others. The call rests on the fitted dose curve; in most records, active means well fitted activation curve with a large enough effect; inconclusive means small, poorly fitted or top-dose-only effect, or another doubt; inactive means no such curve, though single readings can be large or run the other way. Potencies of inconclusive entries are left out as doubtful fits.
# Assay: qHTS of TDP-43 Inhibitors; further: nearly all actives have a fitted effect of over 50% in size; on growth rescue (activation): % of control where 0% means no effect
# Settings: TDP-43 expressing yeast growth rescue, BacTiter-Glo, 24 h; growth rescue (activation): at 46.1 µM (top of the series) unless noted
# How it was run: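 Growth rescue of TDP-43-toxic yeast measured as ATP luminescence (BacTiter-Glo). Cells grown to mid-log in raffinose, induced in galactose at OD600=0.02, exposed to compound 24 hr at 30 deg C.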
# Potency means the concentration at half of the fitted maximal effect; tags describe the fitted curve by direction and shape.
Compound,Potency,growth rescue (activation)
CC(OC(=O)Cc1coc2ccc3ccccc3c12)C(=O)Nc1ncc(Cl)cc1Cl (stereo unspecified),"inconclusive [activator, single point]",
COc1ccc(-c2cc(-c3ccc(OC)c(OC)c3)n[nH]2)c(O)c1,"inconclusive [activator, single point]",
Clc1ccccc1CN(Cc1ccco1)Cc1nnnn1C1CCCC1,"inconclusive [activator, single point]",
CCOc1ccc(C(=O)N2CCN(Cc3cc(=O)n4nc(-c5cccc(OC)c5)sc4n3)CC2)cc1,inactive,
COc1ccc(NS(=O)(=O)c2ccc3ccccc3c2)c2ncccc12,"inconclusive [activator, single point]",
C[C@@H]1CN([C@@H](C)CO)C(=O)c2cc(C#CC3CCCCC3)cnc2O[C@@H]1CN(C)S(=O)(=O)c1ccc(F)cc1,"inconclusive [activator, single point]",
COc1cc(/C=N/Nc2nc3ccccc3s2)ccc1O,"inconclusive [activator, single point]",
COc1ccc(S(=O)(=O)N2CCN=C2SCc2cccc(C)c2)cc1,"inconclusive [activator, single point]",
COC(=O)/C(C#N)=C/c1c(N2CCN(c3ccccc3)CC2)nc2c(C)cccn2c1=O,"inconclusive [activator, single point]",
C[C@]12CC[C@@H]3c4ccc(O)cc4CC[C@H]3[C@@H]1CC[C@@H]2O,"inconclusive [activator, partial curve]",
O=C(OCc1csc(Nc2ccccc2)n1)c1ccc(Cl)cc1,active: 10 µM,
COc1ccc(/C=C/c2nnc(NC(=O)C(C)(C)C)s2)cc1,"inconclusive [activator, partial curve, poor fit]",
CCc1cccc(C)c1NC(=O)COCc1cc(-c2ccc3c(c2)OCO3)on1,inactive,
Cc1ccccc1CNCCCSc1nnnn1-c1ccccc1,,inactive: 4.95% [at 9.22 µM]
CCOC(=O)c1ccc(COc2ccc(C(C)C)cc2)o1,"inconclusive [activator, partial curve]",
CC(=O)c1sc(Nc2ccc(Oc3ccccc3)cc2)nc1C,active: 35.5 µM,
Cc1ccc(-n2ncc3c(N4CCC(C)CC4)ncnc32)cc1C,"inconclusive [activator, partial curve, poor fit]",
CCOc1ccc(S(=O)(=O)c2cn(Cc3ccc(C)cc3)c3ccc(OC)cc3c2=O)cc1,inactive,
CCn1ncc(Br)c1C(=O)Nc1ccc(-c2ccno2)cc1,"inconclusive [activator, partial curve]",
CCOc1ccccc1N(CC(=O)NCCSc1ccccn1)S(=O)(=O)c1ccc(C)cc1,"inconclusive [activator, single point]",
Cc1nnc2c(NCCC(C)C)nc3ccccc3n12,"inconclusive [activator, partial curve, poor fit]",

Compound,Potency,growth rescue (activation)
Cc1ccc(CNC(=O)COCc2cc(-c3ccc4c(c3)OCO4)on2)cc1,inactive,
Cc1ccc(C)c(S(=O)(=O)N2CCN(C(=O)Cc3c(F)cccc3Cl)CC2)c1,"inconclusive [activator, single point]",
CCCCn1nc(C(=O)N2CCc3ccccc32)c2ccccc2c1=O,"inconclusive [activator, single point]",
O=C(OCCC12CC3CC(CC(C3)C1)C2)c1ccc(NCc2cc(O)ccc2O)cc1,"inconclusive [activator, single point]",
COc1ccc(CN(C)c2ncnc3sccc23)c(OC)c1OC,"inconclusive [activator, single point]",
Cc1cc2nc(-c3ccccc3)c(Cc3cccc(Cl)c3)n2c(C)c1Br,"inconclusive [activator, partial curve]",
CCCCOc1ccc(C(=O)OCC(=O)NC2CCCC2)cc1,"inconclusive [activator, partial curve]",
CCOc1ccc(C(=O)Nc2cccc3cccnc23)cc1,"inconclusive [activator, partial curve]",
CC(=O)c1c(C)[nH]c(C(=O)COC(=O)C2(C)CC2(Cl)Cl)c1C (stereo unspecified),"inconclusive [activator, partial curve]",
Nc1ccc(Oc2ccc3nc(-c4ccccc4)c(-c4ccccc4)nc3c2)cc1,"inconclusive [activator, single point]",
C=CCn1c(=O)c2c(nc3n2CCN3c2cccc(Cl)c2C)n(C)c1=O,"inconclusive [activator, partial curve]",
COc1ccc(C2=Nc3ccccc3N(C(=O)Cc3cc(OC)cc(OC)c3)C2C(=O)NC(C)(C)C)cc1 (stereo unspecified),"inconclusive [activator, single point]",
COc1ccc(C(=O)/C=C/C(=O)N(Cc2ccc3c(c2)OCO3)C(C(=O)NC2CCCCC2)c2ccncc2)c(O)c1 (stereo unspecified),"inconclusive [activator, single point]",
COc1ccc(NCc2nc3ccccc3n2CCOc2ccc(C)cc2)cc1,"inconclusive [activator, partial curve]",
CC1=CC(=NOS(=O)(=O)c2ccc(C)cc2)CC(C)(C)C1,,inconclusive: -93.2% [activator]
COc1ccccc1CNC(=O)c1cc2ccc3ccc(C)[nH]c3c2n1,"inconclusive [activator, partial curve]",
COC(=O)c1ccc(CSc2nnc(CS(=O)Cc3ccc(Br)cc3)n2-c2ccccc2)cc1 (stereo unspecified),active: 25.1 µM,
CC1CCN(S(=O)(=O)c2cc(Br)cc(C(=O)NC3=NCCS3)c2)CC1,"inconclusive [activator, single point]",
Cc1cccc(CC(=O)Nc2cccc(-c3nc4cccnc4s3)c2)c1,"inconclusive [activator, full curve, poor fit]",
Cc1cccc(OCCSc2nnc(-c3ccoc3C)n2C)c1,active: 17.8 µM,
